Data: PubChem BioAssay AID1346428 (National Center for Advancing Translational Sciences (NCATS), 2018)
The whole screen tested about 48,000 compounds, of which about 1,200 (2.5%) were called active. Another 2% or so got no clear call; they are omitted.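 Rule for the calls: active = activation of at least 60% and not above a set upper limit (about 1 call in 100 departs from these limits); inconclusive = activation of 40% to 60%, or above that upper limit; inactive = activation under 40%.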 The list shows a part of the results.

target: Probable G-protein coupled receptor 32 (Homo sapiens) (UniProt O75388); assay: qHTS for Agonists of Human Resolvin D1 Receptor DRV1; details: CHO-K1 GPR32 beta-arrestin PathHunter luminescence, 90 min; at 76.9 µM; stronger effect = higher value; zero percent set by DMSO-only wells; note: 0% is about no effect
How it was run: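 Readings come from a cell-based beta-arrestin complementation format: CHO-K1 GPR32 stable cells (2,500/well) treated 90 min with compounds, then beta-Gal substrate added for 1 h before chemiluminescence imaging.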

UniProt O75388, sequence (O75388 whole entry, looked up): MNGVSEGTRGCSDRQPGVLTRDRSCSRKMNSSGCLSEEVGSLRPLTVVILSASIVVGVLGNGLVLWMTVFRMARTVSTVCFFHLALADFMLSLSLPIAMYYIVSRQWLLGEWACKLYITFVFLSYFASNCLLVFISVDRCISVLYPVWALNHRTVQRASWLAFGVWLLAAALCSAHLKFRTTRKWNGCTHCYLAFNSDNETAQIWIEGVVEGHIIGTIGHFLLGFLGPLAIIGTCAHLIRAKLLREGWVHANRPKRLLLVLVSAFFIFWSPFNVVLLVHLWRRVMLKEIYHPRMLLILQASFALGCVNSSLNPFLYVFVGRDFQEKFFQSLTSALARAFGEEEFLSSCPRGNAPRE

activation, inactive:
COc1ccc(NC(=O)CN2C(=O)COc3ccc(S(=O)(=O)N4CCCCC4)cc32)cc1Cl -5.25%
O=C(CN1C(=O)CSc2ccc(S(=O)(=O)N3CCCC3)cc21)NCc1ccc(Cl)cc1 -20.4%
COc1ccc(C)cc1NC(=O)N1CCN(c2cc(-c3noc(C)n3)ccc2C)CC1 -1.49%
COc1ccccc1N1CCN(c2ccc(-c3nc(-c4ccccc4)no3)cc2[N+](=O)[O-])CC1 -24.1%
CCC1CCCCN1CCCNC(=O)c1ccc2c(c1)N(Cc1ccc(Cl)cc1)C(=O)c1ccccc1S2(=O)=O (centres undefined) -6.38%
O=C(Cn1cc(C(=O)C2CC2)c2ccccc21)Nc1ccc(Br)cc1 25.6%
Cc1ccc(C)c(Cn2c(=O)n(CCCCCC(=O)NCc3ccc4c(c3)OCO4)c(=O)c3sccc32)c1 -12.5%
CC(=O)c1ccc(NC(=O)CCCc2nc(-c3cccc(C)c3)no2)cc1 29.7%
Cc1ccc2c(CC(=O)N(Cc3ccc(Cl)cc3)Cc3ccco3)coc2c1 -27%
Cc1ccccc1Nc1cc(C(=O)NCCc2ccc(Cl)cc2)c2ccccc2n1 -15.3%
COC(=O)Cc1c(C)c2ccc3c(c2oc1=O)CN(Cc1ccccc1OC)CO3 -12.5%
CC(CNC(=O)Cn1c(-c2cccs2)cc2ccccc21)c1ccccc1 (centres undefined) -23.3%
CCC(=O)N1CCc2cc(Br)cc(S(=O)(=O)N3CCCC(C(=O)NCc4ccc(OC)cc4)C3)c21 (centres undefined) 1.7%
Cc1oc(-c2ccc(Cl)cc2)nc1CSCC(=O)NCc1ccccc1Cl -15.2%
COc1cc(C2c3c(oc4ccc(C)cc4c3=O)C(=O)N2Cc2ccccc2)ccc1O (centres undefined) -2.46%
COc1cccc(C(=O)Nc2c(C(=O)c3ccc(F)cc3)oc3ccccc23)c1 -0.899%
Cc1ccc(Cl)cc1N1CCN(CCCNC(=O)c2nnc(Cc3cccc(Cl)c3)o2)CC1 -3.6%
O=C(Nc1cccc(F)c1)c1cccc2c1C(=O)N(C1CCCCC1)C2 -19.5%
CCCOc1ccc(C2c3c(-c4ccccc4O)n[nH]c3C(=O)N2CCCOCC)cc1OCC (centres undefined) -10.2%
CCC(=O)N1CCCc2cc(S(=O)(=O)N3CCC(C(=O)Nc4ccccc4CC)CC3)ccc21 6.2%
COc1cccc(NC(=O)CSc2nnc(-c3cccs3)o2)c1 -0.232%
COc1ccccc1NC(=O)Cn1c(=O)n(-c2cccc(Cl)c2)c(=O)c2c1c1cc(C)ccc1n2C -9.68%
CC1=C(c2ccc(C)c(C)c2)S(=O)(=O)N=C1N1CCC(C(=O)Nc2cccc(F)c2)CC1 -13.3%
Cc1cc(C)cc(Nc2nnc(-n3nc(C)cc3C)c3ccccc23)c1 -26.6%
CN1CCc2nc3sc(C(=O)Nc4cccc(C#N)c4)c(N)c3cc2C1 15.8%
CCCOc1ccc(NC(=O)CC2C(=O)N(c3ccc(Cl)cc3)C(=O)N2CCc2ccncc2)cc1 (centres undefined) -13.9%
CCN1CCN(Cc2c(O)ccc3oc(C)c(C(=O)Nc4ccc(C)cc4C)c23)CC1 -8.45%
CCc1ccccc1NC(=O)CSc1ncc(S(=O)(=O)c2ccccc2)c(=O)[nH]1 -2.96%
Cc1cccc(OCC(=O)Nc2ccc(Cl)c(-c3nc4ccccc4[nH]3)c2)c1 -0.956%
O=C(CCc1nc2cccnc2n1Cc1cccs1)Nc1cccc(Cl)c1 -19.1%
CCn1cc(C(=O)NCc2ccc(C)cc2)c(=O)c2cc(S(=O)(=O)N3CCCCCC3)ccc21 21.3%
CCOc1ccc(CNC(=O)c2ccc(NC(=O)N3CCCCc4ccccc43)cc2)cc1OC 18.8%
COc1ccccc1CNC(=O)c1ccc2nc(-c3ccccc3)c(-c3ccccc3)nc2c1 -0.886%
C/C=C/C=N/NC(=O)c1ccncc1 -4.7%
CC(C)CNc1nc(Oc2ccc(OCC(N)=O)nn2)nc(N2CCOCC2)n1 1.69%
Cc1nn(C)c2c1c(C(F)(F)F)cc(=O)n2Cc1cccc(Br)c1 -2.37%
CCOC(=O)c1cc(-c2ccccc2)n(CCC(=O)Nc2ccc(Cl)c(C(F)(F)F)c2)c1C 10.3%
Cn1cc(S(=O)(=O)N2CCCCCC2)cc1C(=O)NCc1ccccc1Cl -6.46%
CCOc1ccc(-n2c(-c3ccccc3)c(C)n3c4c(=O)n(C)c(=O)n(C)c4nc23)cc1 13.6%
N[C@@H](Cn1ccc(=O)c(O)c1)C(=O)O -5.42%
CCCNC(=O)C1CCN(c2ncnc3c2nc2n3CCCCC2)CC1 1.19%
CCc1ccc(-n2c(=O)c3sc4ccccc4c3n(Cc3cccc(F)c3)c2=O)cc1 17.9%
CC(N)(Cc1ccc(O)c(O)c1)C(=O)O (centres undefined) -1.27%
CCc1nnc(NC(=O)c2nc(SCc3ccccc3C)ncc2Cl)s1 9.71%
CCCCCOc1ccc(/C=C/C(=O)Nc2sc(C(C)=O)c(C)c2C(=O)OCC)cc1OC 1.62%
CCCC(=O)NCC(c1ccc2c(c1)OCO2)N1CCN(c2ccccc2)CC1 (centres undefined) -19.2%
Cc1oc(C)c2c(=O)cc(-c3ccc4c(c3)OCO4)cc(OC(=O)c3ccccc3Cl)c12 -13.1%
CC(=O)NO -5.5%
Cc1c(Cl)cccc1NC(=O)Cn1c(=O)nc(-c2ccccc2)c2ccccc21 -15.6%
Cc1onc(-c2ccc(F)cc2F)c1C(=O)Nc1cccc(C(F)(F)F)c1 -24.5%
CC(C)Sc1ncc(Cl)c(C(=O)Nc2nnc(C(C)C)s2)n1 4.87%

activation, active:
Cc1ccc(NC(=O)c2sc3nc(-c4ccc(F)cc4)ccc3c2N)cc1F 85.8%
Cc1cccc(NS(=O)(=O)c2ccc(-n3cccn3)cc2)c1C 72.6%
CCOC(=O)N1CCc2c(sc(NCc3ccc(OC)c(OC)c3OC)c2C(=O)Nc2ccc(OC)cc2OC)C1 85.5%
